Some of the results follow. Where only a bound is given, the exact number is not on record here.

The test system of this test is T1, Caupolican (Caup) homeodomain DNA-binding domain.
T1 sequence: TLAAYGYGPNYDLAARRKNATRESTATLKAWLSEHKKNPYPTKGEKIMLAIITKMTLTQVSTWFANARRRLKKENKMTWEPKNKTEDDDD
The test can be described thus: PBM E-score (8-mer, recovered from the published 9-mer minima) (E-score (dimensionless, -0.5 to 0.5)); Drosophila protein; higher = stronger relative binding preference, active = 0.31 or more. The method in brief:
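Caup's homeodomain DNA-binding domain (residues 214-303) was made by in vitro transcription and translation and applied at 100 nM to custom-designed protein binding microarrays. Each value is an enrichment score that gives relative binding preference for a short DNA word, with higher meaning stronger. The 8-mer values were recovered from published 9-mer scores, each of which was the minimum of its two constituent 8-mer scores. A cutoff of 0.31 marks candidate sites.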
On to CGAATGAG, for which the “PBM E-score” value is inactive: -0.0787.

ATTTTACG: the “PBM E-score” value is inactive: 0.0947.

In the case of AAAAGTGT, the “PBM E-score” value was inactive: 0.0517.

On to GGGACGTA, for which the “PBM E-score” value was inactive: -0.0693.

For ATACGTAT, the “PBM E-score” value was inactive: 0.163.

ATCGGCGA: the “PBM E-score” value is inactive: -0.13.

For AACGATTA, the “PBM E-score” value is inactive: 0.0353.

As to ATAGATTC, the “PBM E-score” value is inactive: 0.1.

As to ACCCTGCA, the “PBM E-score” value was not below -0.0187.

In the case of ATGGCACG, the “PBM E-score” value was inactive: -0.0348.

On to CAACATGG, for which the “PBM E-score” value was inactive: 0.295.

For GCTCCCCA, the “PBM E-score” value was inactive: -0.196.

For the sequence CTTGGGCA, the “PBM E-score” value is inactive: -0.151.

In the case of GCTCACCA, the “PBM E-score” value is inactive: -0.117.

With TGTAGCAA, the “PBM E-score” value was inactive: 0.256.

Turning to AAGCTTCC, the “PBM E-score” value is inactive: -0.133.

As for GGGCAGGA, the “PBM E-score” value is not below -0.0697.

Turning to ATTATGTC, the “PBM E-score” value was inactive: 0.227.

Take CTGTAGCC: the “PBM E-score” value is inactive: -0.0118.

On to GAGACTGA, for which the “PBM E-score” value was inactive: -0.071.

Consider CTAACCTA, for which the “PBM E-score” value was inactive: 0.0604.

With GAATCGAC, the “PBM E-score” value was inactive: -0.0357.

For the sequence GCCCATAA, the “PBM E-score” value is inactive: -0.093.

On to CGCTTACA, for which the “PBM E-score” value was inactive: 0.18.

For AATTACCA, the “PBM E-score” value was inactive: 0.184.

For the sequence GAGGTCGC, the “PBM E-score” value was inactive: -0.133.

With CGAGACTC, the “PBM E-score” value is inactive: -0.0487.

Consider GACCGGGC, for which the “PBM E-score” value is inactive: -0.222.

Consider AGTACCGG, for which the “PBM E-score” value is inactive: 0.0483.

Take AGAATACC: the “PBM E-score” value is inactive: 0.104.

Regarding CTAAGTAG, the “PBM E-score” value was inactive: 0.117.

AACTCATT: the “PBM E-score” value is inactive: -0.0317.

In the case of CATGCATG, the “PBM E-score” value is inactive: 0.208.

Take AGTGGCCA: the “PBM E-score” value was inactive: -0.0565.

Consider TAGTTTAA, for which the “PBM E-score” value is inactive: 0.218.

On to ACCGCCGT, for which the “PBM E-score” value is inactive: -0.106.

With GCGTAGCA, the “PBM E-score” value is inactive: -0.115.

Consider ATACGATC, for which the “PBM E-score” value is inactive: 0.11.

On to ACAGCAAT, for which the “PBM E-score” value is inactive: 0.163.

As to GAGCAGCA, the “PBM E-score” value was inactive: -0.0274.

As for CCGTTCCC, the “PBM E-score” value is inactive: -0.192.

With AAAGAATC, the “PBM E-score” value is inactive: -0.0189.

As for GATCTGCC, the “PBM E-score” value is inactive: -0.00773.

In the case of AGTGTAGC, the “PBM E-score” value is inactive: 0.0951.

Consider GCCTGCAA, for which the “PBM E-score” value was inactive: -0.129.

On to AAGGGGTG, for which the “PBM E-score” value is inactive: -0.101.

In the case of ACTTCGAT, the “PBM E-score” value is inactive: 0.0903.

In the case of CGCTACTC, the “PBM E-score” value is inactive: -0.0891.

Turning to GTAGTCAC, the “PBM E-score” value was inactive: 0.0427.

Regarding CTAGAGGA, the “PBM E-score” value is not below 0.00587.

Turning to AGAGCTAG, the “PBM E-score” value was inactive: -0.0656.

For the sequence GAAAAGTA, the “PBM E-score” value was inactive: 0.113.

Turning to GTAAATAC, the “PBM E-score” value was inactive: 0.132.

For the sequence AGTGAGCG, the “PBM E-score” value was inactive: -0.0385.

AAGCAAGC: the “PBM E-score” value was inactive: 0.00812.

As to GGAGTGCA, the “PBM E-score” value is inactive: -0.0923.

As for TTGCGAAA, the “PBM E-score” value is inactive: 0.07.

AAGTTTCC: the “PBM E-score” value is inactive: 0.0498.

In the case of AATGTGCA, the “PBM E-score” value is inactive: 0.193.

As for GAATGAGA, the “PBM E-score” value is inactive: -0.0964.

For AGCATGGG, the “PBM E-score” value was inactive: -0.0663.

AGGATACG: the “PBM E-score” value was inactive: 0.0709.

For the sequence AGAAATAC, the “PBM E-score” value is inactive: 0.0797.

As to GGAACATA, the “PBM E-score” value is inactive: 0.271.

As for CTAACGGA, the “PBM E-score” value was inactive: -0.0298.

As to CGATGTAG, the “PBM E-score” value was inactive: 0.179.

CTTTCTTC: the “PBM E-score” value is inactive: -0.0998.

CTGAAACA: the “PBM E-score” value is inactive: 0.11.

With AACACGGT, the “PBM E-score” value is active: 0.351.

Consider GAGGAGGC, for which the “PBM E-score” value was inactive: -0.235.

In the case of AGCTAGCT, the “PBM E-score” value is not below -0.0595.

With AGTATTTA, the “PBM E-score” value was inactive: 0.223.

Regarding GCGATGAA, the “PBM E-score” value was inactive: -0.0305.

With AGCTAGTA, the “PBM E-score” value is inactive: 0.108.

Consider CTTCAAAC, for which the “PBM E-score” value was inactive: -0.0333.

Consider GGACCACC, for which the “PBM E-score” value was inactive: -0.0218.

As to GGCCCACA, the “PBM E-score” value is inactive: -0.132.

In the case of CGAGTAAG, the “PBM E-score” value was inactive: -0.00379.

With CACGTGGC, the “PBM E-score” value is inactive: -0.0843.

With CCTGTTTA, the “PBM E-score” value is inactive: 0.0657.

In the case of GACAATCA, the “PBM E-score” value was inactive: 0.0975.

Take CTTAAACC: the “PBM E-score” value was inactive: 0.00548.

For ACATGCAA, the “PBM E-score” value is active: 0.323.

As to ATCCGTAC, the “PBM E-score” value is inactive: 0.0556.

On to AGGCGGTC, for which the “PBM E-score” value is inactive: -0.116.

As for CCTCGCGA, the “PBM E-score” value is inactive: -0.153.

On to CGATGAAC, for which the “PBM E-score” value is inactive: -0.0351.

For ACAAGTGG, the “PBM E-score” value was inactive: 0.205.

Consider CGGGATGC, for which the “PBM E-score” value is inactive: -0.178.

Consider CGTGATGC, for which the “PBM E-score” value was inactive: -0.0697.

Take CCGACGGC: the “PBM E-score” value was inactive: -0.16.

With CTTGCGCA, the “PBM E-score” value was inactive: -0.0025.

GTTACTCA: the “PBM E-score” value was inactive: 0.119.

Consider AGATCTTA, for which the “PBM E-score” value was inactive: 0.018.

Consider GCGCATTA, for which the “PBM E-score” value was inactive: 0.0667.

Regarding AAAATGAA, the “PBM E-score” value is inactive: 0.123.

As for ATCAAGCG, the “PBM E-score” value was inactive: -0.0476.

For CATTTCGC, the “PBM E-score” value was inactive: -0.0461.

For the sequence CTTTGCGC, the “PBM E-score” value was inactive: -0.0457.

As for CCATTGGA, the “PBM E-score” value is inactive: -0.0854.

GATGTGTA: the “PBM E-score” value was inactive: 0.252.

Turning to CGACGGAC, the “PBM E-score” value is inactive: 0.00364.

For the sequence ACATGCGT, the “PBM E-score” value was active: 0.346.

As for GCCACATA, the “PBM E-score” value is inactive: 0.00811.

For CGCTTACC, the “PBM E-score” value is inactive: -0.0649.

Turning to GTTTGAAA, the “PBM E-score” value is inactive: 0.0278.

With ACAATGTG, the “PBM E-score” value is inactive: 0.243.

As to CACCACCA, the “PBM E-score” value was inactive: -0.0462.

For AAATGCGG, the “PBM E-score” value was inactive: -0.0652.

On to CCTTAACG, for which the “PBM E-score” value is inactive: -0.15.

With CAATACCG, the “PBM E-score” value is inactive: -0.0912.

For the sequence CGTGAGCA, the “PBM E-score” value was inactive: -0.09.

In the case of GACAGTGC, the “PBM E-score” value was inactive: 0.00178.

For the sequence ACTTCTCA, the “PBM E-score” value is inactive: 0.00621.

With AGTGCGTA, the “PBM E-score” value was inactive: 0.0147.

For ACCACGTA, the “PBM E-score” value was inactive: 0.0381.

GAAGGATC: the “PBM E-score” value was inactive: -0.103.

On to CGAGGAAG, for which the “PBM E-score” value was inactive: -0.171.

For ATAGGCGG, the “PBM E-score” value was not below -0.00984.

For the sequence GGACAGAC, the “PBM E-score” value was inactive: 0.0679.

Turning to CGCGACAC, the “PBM E-score” value is inactive: 0.113.

As to ATTTTACC, the “PBM E-score” value is inactive: 0.113.

In the case of CGCTTCCA, the “PBM E-score” value was inactive: -0.152.

On to GTTTGGAA, for which the “PBM E-score” value is inactive: 0.035.

Take GGAGCGCA: the “PBM E-score” value is inactive: -0.327.

For CAAGTTAC, the “PBM E-score” value is inactive: 0.136.

For the sequence CCTTTCAG, the “PBM E-score” value was inactive: -0.106.

CCTTATGA: the “PBM E-score” value is inactive: 0.0333.

Consider AGCTTGAA, for which the “PBM E-score” value is inactive: -0.0641.

On to GAACTAAA, for which the “PBM E-score” value was inactive: 0.069.

For TCAGACCA, the “PBM E-score” value is inactive: -0.0205.

ACCATTTG: the “PBM E-score” value is inactive: 0.112.

In the case of AAGATTTC, the “PBM E-score” value was inactive: -0.0132.

Regarding ATCATCTG, the “PBM E-score” value is inactive: 0.0263.

As to GAGGCGTA, the “PBM E-score” value was inactive: -0.0868.

For the sequence CGTGCTAG, the “PBM E-score” value is inactive: -0.0186.

In the case of AGTAGCTG, the “PBM E-score” value is inactive: 0.017.

AACTATAT: the “PBM E-score” value was not below 0.202.

For GCGATTAA, the “PBM E-score” value was inactive: -0.0449.

Consider CGTGTCAA, for which the “PBM E-score” value was inactive: 0.282.

CAGTCCCG: the “PBM E-score” value is inactive: -0.159.

For AACCTACT, the “PBM E-score” value is inactive: 0.0376.

With CTCGGAGC, the “PBM E-score” value is inactive: -0.149.

Source of the values: the supplement of paper PMC3724861.
